From paper PMC4336329 (PLoS ONE, 2015)
In all, about 310,000 compounds went through this assay and about 14,000 (4.5%) showed an effect of 50% or more. Effects have a minus sign here. This is one part of the list.

target: human ether-à-go-go-related gene (hERG) potassium channel (human, UniProt Q12809); assay: primary screen, population patch clamp on CHO cells stably expressing hERG
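Also: peak tail current of the secondary pulse compared with the same well before compound.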

Sequence of human ether-à-go-go-related gene (hERG) potassium channel (Q12809 whole entry, looked up): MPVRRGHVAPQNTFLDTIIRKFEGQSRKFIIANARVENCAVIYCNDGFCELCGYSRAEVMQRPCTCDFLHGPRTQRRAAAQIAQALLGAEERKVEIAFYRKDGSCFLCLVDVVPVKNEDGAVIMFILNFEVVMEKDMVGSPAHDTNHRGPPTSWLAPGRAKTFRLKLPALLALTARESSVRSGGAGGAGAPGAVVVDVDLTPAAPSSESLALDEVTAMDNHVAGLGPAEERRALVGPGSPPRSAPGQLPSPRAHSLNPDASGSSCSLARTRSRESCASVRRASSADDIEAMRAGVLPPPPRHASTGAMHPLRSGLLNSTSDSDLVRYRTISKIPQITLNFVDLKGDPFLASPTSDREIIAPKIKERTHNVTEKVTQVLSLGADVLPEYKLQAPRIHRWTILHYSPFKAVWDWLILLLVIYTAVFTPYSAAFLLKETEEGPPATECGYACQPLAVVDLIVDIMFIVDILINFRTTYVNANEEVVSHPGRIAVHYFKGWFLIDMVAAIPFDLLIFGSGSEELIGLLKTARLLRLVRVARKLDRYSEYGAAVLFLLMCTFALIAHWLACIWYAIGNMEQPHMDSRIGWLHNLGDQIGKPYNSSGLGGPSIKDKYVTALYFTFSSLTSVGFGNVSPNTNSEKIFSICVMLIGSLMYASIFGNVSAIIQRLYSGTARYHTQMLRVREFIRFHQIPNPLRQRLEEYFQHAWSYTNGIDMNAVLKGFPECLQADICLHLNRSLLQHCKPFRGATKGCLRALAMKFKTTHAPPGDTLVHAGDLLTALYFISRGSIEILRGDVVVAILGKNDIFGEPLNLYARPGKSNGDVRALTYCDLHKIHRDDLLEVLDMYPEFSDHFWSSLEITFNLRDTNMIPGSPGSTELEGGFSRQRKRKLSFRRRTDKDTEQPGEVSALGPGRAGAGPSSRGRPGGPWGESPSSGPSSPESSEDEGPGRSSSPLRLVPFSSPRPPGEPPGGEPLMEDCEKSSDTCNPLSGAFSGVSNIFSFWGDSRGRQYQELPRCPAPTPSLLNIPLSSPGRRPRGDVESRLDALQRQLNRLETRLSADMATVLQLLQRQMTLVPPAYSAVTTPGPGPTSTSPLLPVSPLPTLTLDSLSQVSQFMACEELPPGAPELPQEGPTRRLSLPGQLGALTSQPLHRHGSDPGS

Structure (SMILES) | hERG current change (%, negative = inhibition) at 10uM [%]
CN1CCN(C(=O)c2ccc(-c3cccs3)s2)CC1 | -14.1
CCc1ccccc1NC(=O)COc1ccc(N2CC(C(N)=O)CC2=O)cc1 (stereo not drawn) | 18.9
Cc1ccc2cc(C#N)c(N3CCCN(C(=O)c4cnccn4)CC3)nc2c1 | -42.4
Cc1ccc(-c2ccc(=O)n(CC(=O)NCCC(C)C)n2)cc1 | -3.5
O=C(NC1CCCCC1)c1cccc(COCC(F)(F)F)c1 | 12.3
COc1ccc(CCNC(=O)CSc2nncn2N)cc1OC | 8.77
CCc1ccc(NS(=O)(=O)c2cccs2)cc1 | -12.8
Cc1ncoc1C(=O)Nc1ncc([N+](=O)[O-])s1 | -12.9
Cn1c(N)c(C(=O)COC(=O)C2CCCC2)c(=O)n(C)c1=O | -20.6
CCN(CC)S(=O)(=O)c1ccc(N/N=C(\C)c2ccc(OC)cc2O)nc1 | 17.9
CCOC(=O)C1(CC2CCCCO2)CCN(Cc2nc(C(C)C)cs2)CC1 (stereo not drawn) | -5.24
CCCCN(c1ccccc1)c1ncnc2nc[nH]c12 | -21.9
CCCCCOc1ccc(C(C)(O)C(CN2CCOCC2)c2ccccc2)cc1 (stereo not drawn) | 1.59
O=C(N/C=C\c1ccccc1)NCc1ccc(Cl)cc1Cl | 8.17
CC(C)(C)c1cc(CSC(=S)NC2CCS(=O)(=O)C2)c(Br)c(C(C)(C)C)c1 (stereo not drawn) | 2.38
CCOC(=O)N1CCN(C(=O)c2ccc(Cn3c(=S)[nH]c4cc5c(cc4c3=O)OCO5)cc2)CC1 | 0.805
C=CCn1c(SCc2nc3sc(C(=O)O)c(C)c3c(=O)[nH]2)nnc1-c1ccccc1 | 12.1
COc1ccc(OC)c2[nH]c(=O)c(CCNC(=O)c3ccc(Br)o3)cc12 | -18.3
COc1ccc(CCNC(=O)c2ccc(=O)[nH]c2)cc1 | 12.8
O=c1cc2c(nn1Cc1ccccc1)-c1ccccc1CC2 | -17.6
O=C(Nc1cccc(Cl)c1)N1C[C@H]2C[C@@H](C1)c1cccc(=O)n1C2 | 2.8
Clc1ccc(Cn2ncc3c(N4CCCCC4)ncnc32)c(Cl)c1 | 14.9

Structure (SMILES) | hERG current change (%, negative = inhibition) at 10uM [%]
Cc1ccc2cc(CN(C(=O)c3cccs3)c3ccccc3)c(=O)[nH]c2c1 | 21.4
Cc1ccc(NC(=O)CN2C(=O)S/C(=C\c3cc(C)n(C)c3C)C2=O)cc1 | -1.56
CCOC(=O)C(=O)C1=C(N2CCOCC2)/C(=C\c2ccc(F)cc2)CC1 | -1.49
O=C(Nc1c(C(=O)N2CCOCC2)cnn1-c1ccccc1)c1ccc(F)cc1 | 13.8
CCOC(=O)C1=C(C)NC(C)=C(C(=O)OCC)C1c1cccs1 | 14.4
C=CCNS(=O)(=O)CC12CCC(CC1=O)C2(C)C (stereo not drawn) | 7.32
COc1cccc(-n2c(=O)c3sccc3n(CC(=O)NC3CCCC3)c2=O)c1 | 17.9
CCCOc1ccc(N2C(=O)CC(N(CCc3ccc(S(N)(=O)=O)cc3)C(C)=O)C2=O)cc1 (stereo not drawn) | 14.4
O=C(CCc1nnc(CCCCc2ccccc2)o1)N1CCCCC1CCO (stereo not drawn) | -1.73
CCCCCCC1CC(=O)NC(=O)N1 (stereo not drawn) | 12.1
O=C(O)COc1ccccc1/C=N/NC(=O)CSc1nnc(SCc2ccc(Cl)cc2)s1 | 7.23
COc1ccc(-c2[nH]ncc2CN2CCC(c3ccncc3)CC2)cc1F | -62.7
COC(=O)c1ccc(/C=N\N2CCN(Cc3ccc(C)cc3)CC2)cc1 | 9.51
COc1ccc(-[n+]2c(-c3ccccc3)cc(-c3ccc(C)cc3)cc2-c2ccccc2)cc1.[O-][Cl+3]([O-])([O-])[O-] | -77.7
CCc1ccc(-c2cc(C(=O)O)c3ccccc3n2)s1 | 16.9
Cc1ccc2c(c1)N(C(=O)CCC(=O)Nc1ccccc1Cl)CC(C)O2 (stereo not drawn) | -27
Cc1ccc(CN2C(=O)CCC2C(=O)NC2CC2)cc1 (stereo not drawn) | 10.8
NS(=O)(=O)c1ccc(N2C(=O)C(=O)/C(=C(/O)c3ccccc3)C2c2ccc(Cl)cc2)cc1 (stereo not drawn) | 18.1
COc1ccc(C(=O)NCCCOC(=O)c2ccc(OC)cc2)cc1 | -14.6
Cc1cc2oc(=O)cc(CN3CCN(Cc4ccc5c(c4)OCO5)CC3)c2cc1C | -17.2
COc1cc(NC(=O)c2ccccc2OCc2ccccc2)cc(OC)c1OC | 23.9
CCN1CCN(Cc2ccccc2NC(=O)Nc2ccc(C)cc2)CC1 | -0.992

Structure (SMILES) | hERG current change (%, negative = inhibition) at 10uM [%]
Cn1cc(CN2CCN(c3ncccn3)CC2)c(-c2cccc(Cl)c2)n1 | -20.5
COc1ccc(N2C(=O)CN(Cc3cc(OC)c(OC)c(OC)c3)C2=S)cc1 | 16.2
Cc1cccc(C(=O)NCC(=O)N2CCN(S(=O)(=O)c3cc(C)ccc3C)CC2)c1 | -19.4
CCC(=O)NC(c1cccs1)c1cc(Cl)c2ccccc2c1O (stereo not drawn) | -20.9
Cc1nnnn1CC(=O)Nc1cccc([N+](=O)[O-])c1 | 18.6
CCn1c(=O)c2cc(C(=O)N(C)c3cc(C)ccc3OC)sc2c2ccccc21 | 6.98
CC(=O)c1ccc(Nc2c([N+](=O)[O-])ccc3nonc23)cc1 | 5.59
Cc1cccc(OCCNC(=S)NC(=O)c2cccnc2)c1 | 14.4
Brc1ccc(-c2csc(N/N=C/c3ccc4c(c3)OCO4)n2)cc1 | 21.3
CCc1nnc(NC(=O)c2ccc(Cl)c(S(=O)(=O)N3CCc4ccccc4C3)c2)s1 | 5.89
COc1ccc(CCn2c(N3CCOCC3)nc3c2c(=O)[nH]c(=O)n3C)cc1 | -15.5
O=C(CN1CCCCC1)N1c2ccccc2Oc2ccccc21 | -8.22
O=C(O)CCNc1ccc2c(c1)OCCO2 | 1.69
CCc1ccccc1NC(=O)CN(C)S(=O)(=O)c1ccc2c(c1)c(=O)n(C)c(=O)n2C | -1.01
O=c1c2ccccc2oc2cc(-c3ccc4[nH]ccc4c3)ccc12 | 11.4
C#CCOCCOCCOCCNc1nc(N2CCN(C(=O)CCCCCCCCCCNC(=O)[C@@H]([C@H](C)O)n3cc(C)nn3)CC2)nc(N2CCN(C(=O)CCCCCCCCCCNC(=O)[C@@H]([C@H](C)O)n3cc(C)nn3)CC2)n1 | 0.635
O=C(NCc1ccccc1)c1ccc(-c2ccccc2C(F)(F)F)o1 | -2.8
Cn1ccnc1SCC(=O)c1ccc(Br)cc1 | -18.2
Cc1cc(SCC(=O)OCC(=O)NCc2ccc3c(c2)OCO3)c(C)cc1Br | 2.21
CCOC(=O)CCNC(=O)N1CCCC(CNS(=O)(=O)Cc2ccccc2)C1 (stereo not drawn) | 4.2
COc1ccc(C(=O)C(C)(C)NO)cc1.Cl | 5.05
CNCCc1c(C)n[nH]c1C.Cl | 14.6

Structure (SMILES) | hERG current change (%, negative = inhibition) at 10uM [%]
c1ccc2[nH]c(-c3nc4ccccc4[nH]3)nc2c1 | 10.1
Cc1ccc(CN(C)C(=O)COC(=O)CSc2ccc([N+](=O)[O-])cc2)cc1 | -6.23
Cc1nc2ccc(CCO)cc2s1 | 15.8
CC(=O)Oc1cccc(N2C(=O)c3ccccc3C2=O)c1 | 13.2
CC(=O)c1c(OC(=O)c2ccccc2)c2ccccc2n1C | 9.18
COc1ccc(N2CCN(C(=O)c3cc([N+](=O)[O-])ccc3N3CCN(CCO)CC3)CC2)cc1 | -24.6
COc1ccc(CC(=O)N(C)CC(=O)Nc2ccccc2C(F)(F)F)cc1S(=O)(=O)N1CCOCC1 | 5.49
Cn1c(=O)n(Cc2ccccc2)c(=O)c2c1nc1n2CCS1 | -1.93
O=C(COc1ccc2ccccc2c1Br)Nc1cccnc1 | 20.1
Cc1ccc(C)c(NS(=O)(=O)c2cc(C(=O)NCc3ccncc3)ccc2C)c1 | -45.6
O=C(Nc1ccccc1)C1=C[C@@H](C2CCCCC2)C[C@@H](OCCCCO)O1 | -5.2
Cc1cc(C)cc(NS(=O)(=O)c2cc(Br)cnc2N)c1 | 12.7
COc1cccc(CNC(=O)CCS(=O)(=O)c2ccc3c(c2)NC(=O)C(C)S3)c1 (stereo not drawn) | -0.951
COc1ccc(COc2ccccc2C(=O)Nc2ccccn2)cc1[N+](=O)[O-] | 0.837
Cc1ccc2c(c1)C(c1ccccc1)CC(=O)O2 (stereo not drawn) | -5.2
NS(=O)(=O)c1cc2c(cc1Cl)NC(Cc1ccccc1)NS2(=O)=O (stereo not drawn) | 13.8
CCOc1ccc(CN2CCN(Cc3ccc4cc(F)ccc4n3)CC2CCO)cc1 (stereo not drawn) | -75.7
NC(=O)c1snnc1-c1ccccc1 | 13.9
CC(Sc1nnc(Cc2ccccc2)o1)C(=O)Nc1ccccc1[N+](=O)[O-] (stereo not drawn) | 6.68
Cc1ccc(S(=O)(=O)N2CCCCC2)cc1C(=O)N(C)CC(=O)Nc1cccc(F)c1 | -49.6
COC(=O)C(=O)Nc1nnc(COc2ccccc2)s1 | 4.14
